Measured values published in PubChem BioAssay AID1345083 (National Center for Advancing Translational Sciences (NCATS), 2018).
The whole screen tested about 94,000 compounds, of which about 6,200 (6.6%) were called active. Inconclusive means that the source gave no clear call. Such entries were picked first, then a sample of the others. Calls follow the shape of the dose curve; as a rule, active = well fitted inhibition curve with a large enough effect; inconclusive = small, poorly fitted or top-dose-only effect; inactive = flat fitted curve, though single readings scatter. Potencies beside an inconclusive call are fits to weak or partial responses and may not hold up.

assay: Cytotoxic Profiling in HEK 293 Cell Line of Diverse Libraries Using Quantitative High-Throughput Screening; conditions: HEK 293 viability, ATP luminescence (CellTiter-Glo), 48-72 h; activity change, negative = cytotoxicity: at 115 µM (top of the series) unless noted; series mostly up to 115 µM; also: nearly all actives have a fitted effect of over 60% in size
Method in brief: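 ATP-coupled CellTiter-Glo luminescence served as viability read-out, recorded 10 min after reagent addition at room temperature. HEK 293 cells, 250 cells/well, had been incubated with pintool-transferred compound for 48 or 72 hr at 37 degree Celsius.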
% is scaled to controls: 0 for no effect and ±100 for the full control effect; potency is read from the fitted curve at half-maximal effect; tags tell the direction and shape of the fitted curve.

SMILES	outcome	activity change, negative = cytotoxicity	Potency
Cn1ncc2c(C(=O)NCc3cccc(F)c3)cc(-c3ccc([S+](C)(=O)[O-])cc3)nc21	inactive		
CC(C)CCN1CCC2(CC1)C(=NC1CCCC1)NC(=O)N2c1cc(F)cc(F)c1		inactive: 3.93%	
O=C(c1n[nH]c(=O)c2ccccc12)N1CCCC1c1nc(CCOCC2CC2)no1 (stereo not drawn)		inactive: -0.556%	
CN1CCC(N2CC[C@H](c3nnc(-c4ccc(Cl)cc4)o3)C2)CC1			inconclusive: 100 µM [inhibitor, partial curve, poor fit]
COCC(=O)N1CCC(=O)N(CCC#N)C[C@H]2CN(C)c3ccccc3[C@@H]21			inconclusive: 39.8 µM [inhibitor, partial curve, poor fit]
Cc1nn(-c2ccccc2)c2c1C(C)N(C1CCN([S+](=O)([O-])c3cccs3)CC1)C2=O (stereo not drawn)			inconclusive: 25.1 µM [inhibitor, full curve]
Cc1cccc(-c2nc3ccc(C(=O)NC4CC4)cc3o2)n1			active: 44.7 µM
CN(Cc1ccc(F)cc1)C(=O)Nc1ccccc1		inactive: -25% [at 172 µM]	
COc1ccc(C(=O)N2CCC(c3nn(-c4ccc(Cl)cc4)c(=O)[nH]3)CC2)cc1			inconclusive: 50.1 µM [inhibitor, partial curve, poor fit]
CN(C)C(=O)N1CCC2(CC1)CC(=O)N(c1ccccc1)c1ccccc1O2		inactive: -3.03%	
CC(=O)N(C)CCc1noc(C2CN(C(=O)c3c(C)noc3C)C2)n1		inactive: 8.56%	
CC(=O)N1CCC2(C1)OC(=O)Nc1ccccc12 (stereo not drawn)		inactive: 0.95% [at 172 µM]	
O=C(NCC1CCOCC1)Nc1ccc(C(F)(F)F)cc1		inactive: -11.1%	
O=C1NCc2ccccc2CC12CCCN(Cc1ccc(Cl)cc1)C2 (stereo not drawn)			inconclusive: 56.2 µM [inhibitor, partial curve, poor fit]
COCC1CN(Cc2ccc(Br)s2)CC12CCNCC2 (stereo not drawn)			inconclusive: 100 µM [inhibitor, single point]
Cc1noc(C2CC3(CCN(C(=O)CCCc4c[nH]c5ccccc45)CC3)CN2C)n1 (stereo not drawn)			inconclusive: 89.1 µM [inhibitor, single point]
Cc1ccc(CN2CCc3nc(N4CCN(C)CC4)[nH]c(=O)c3CC2)cc1		inactive: 12.9%	
Cc1ccccc1C(=O)N1CCc2nc(-c3ccccc3)nc(-c3ccc(Cl)cc3)c2C1			inconclusive: 50.1 µM [inhibitor, partial curve, poor fit]
O=C(COc1ccccc1)Nc1cccn2nc(C3CCC3)nc12			inconclusive: 70.8 µM [inhibitor, partial curve]
O=C(c1ccc(Cl)nc1)N1CCCC(c2nn(-c3ccccc3)c(=O)[nH]2)C1 (stereo not drawn)		inactive: -0.594%	
O=C(NCCc1ccc(F)cc1)c1nc2cccnc2n(Cc2ccccc2)c1=O			inconclusive: 56.2 µM [inhibitor, partial curve, poor fit]
CN1CCCN(C(=O)Cc2ccc(OC(F)(F)F)cc2)c2ccccc21			inconclusive: 50.1 µM [inhibitor, partial curve, poor fit]
C=CCNC(=O)CN1CN(c2ccccc2)C2(CCN(C(=O)NCc3ccccc3)CC2)C1=O		inactive: -15.6%	

SMILES	outcome	activity change, negative = cytotoxicity	Potency
COc1ccc(-c2cc(N3CCCC(NC(=O)c4cc(F)ccc4F)C3)n[nH]2)cc1 (stereo not drawn)			inconclusive: 2.82 µM [inhibitor, full curve, poor fit]
COc1ccccc1CN1C(=O)COC[C@@H]1[C@H](O)c1ccc(NC(=O)CCc2ccccc2)cc1			inconclusive: 79.4 µM [inhibitor, partial curve]
O=C(CCc1ccccc1)N1CCCCCC1CN1CCOCC1 (stereo not drawn)		inactive: -8.67%	
COc1cccc(-c2cc(C(=O)NCc3cccc(Cl)c3)c3cnn(C)c3n2)c1			inconclusive: 39.8 µM [inhibitor, full curve, poor fit]
O=[S+]([O-])(c1cccs1)N1CCC2(CC(c3cccnc3)=NO2)C1 (stereo not drawn)		inactive: -7.08%	
Fc1ccc2c(c1)nc1n2[C@@H](CNC2CCC2)COC1			inconclusive: 112 µM [inhibitor, partial curve]
O=C1Nc2ccccc2CC12CCN(Cc1ccncc1)CC2		inactive: -27.4%	
O=[S+]([O-])(c1cccs1)N1CCN(Cc2ccccc2-c2ccccc2F)CC1			inconclusive: 28.2 µM [inhibitor, full curve]
CSc1ccc(-c2cccc(C(=O)NCC(=O)NC3CC3)c2)cc1			inconclusive: 8.91 µM [inhibitor, full curve, poor fit]
COc1cccc(C(=O)N2CC[C@](O)(c3ccccc3)[C@H](N(C)C)C2)c1		inactive: 6%	
COc1ccc(-c2[nH]nc3ncc(C(=O)NCC4CCOCC4)nc23)c(C)c1			inconclusive: 39.8 µM [inhibitor, full curve]
COc1ccc(O)c(C2CC(=O)Nc3c2c(C)nn3-c2ccc(C)cc2)c1 (stereo not drawn)			inconclusive: 89.1 µM [inhibitor, single point]
COc1cccc(NC(=O)c2ccc3c(c2)NC(C)(COc2ccc4[nH]ccc4c2)CO3)c1 (stereo not drawn)			active: 25.1 µM
CC(C)c1ncc(-c2ccccc2)[nH]1		inactive: -6.53% [at 230 µM]	
CC1=C[C@@H](CN2C(=O)C(C)=C(C)C2=O)[C@H](C(C)C)C[C@H]1Cc1nc2ccc(C)cc2[nH]1			active: 22.4 µM
Cc1ccc(C)c(S(=O)(=O)c2nnn3c2nc(NCc2ccc(F)cc2)c2ccccc23)c1			inconclusive: 25.1 µM [inhibitor, full curve]
COc1ccc(OC)c(CNC(=O)c2ccc3c(c2)N(S(C)(=O)=O)CC3)c1			inconclusive: 39.8 µM [inhibitor, full curve, poor fit]
CS(=O)(=O)N1CCOC(Cn2ccnc2-c2ccc(CO)o2)C1 (stereo not drawn)		inactive: -15.7%	
Cc1ccccc1-c1nccc2c(=O)cc(-c3cccnc3)oc12			active: 112 µM
COc1ccc(-c2nc(-c3c(C)noc3C)cc3[nH]c(C)cc23)cn1			inconclusive: 39.8 µM [inhibitor, full curve]
O=C1NCCCCCN(Cc2cccc(F)c2)[C@@H]2C[C@@H](C(=O)N3CCc4ccccc4C3)C[C@H]12			inconclusive: 50.1 µM [inhibitor, partial curve, poor fit]
COc1cccc(CN2CCCC3(CCN(c4cc(C)nc(N)n4)C3)C2)c1OC (stereo not drawn)			inconclusive: 89.1 µM [inhibitor, partial curve, poor fit]
Cc1nc(-c2c3n(c(=O)n(CC(=O)Nc4ccc(C(C)C)cc4)c2=O)CCCCC3)no1		inactive: -17.6%	

SMILES	outcome	activity change, negative = cytotoxicity	Potency
O=C(NCC(F)(F)F)C1CCN(c2ccnc3ccnn23)CC1			inconclusive: 25.1 µM [inhibitor, full curve, poor fit]
COc1cccc(CN2CCCCCNC(=O)[C@@H]3CCC[C@@H]32)c1			inconclusive: 28.2 µM [inhibitor, partial curve, poor fit]
CC(C)=CCC1(CO)CCCN(C(=O)c2cccn2C2CC2)C1 (stereo not drawn)			inconclusive: 25.1 µM [inhibitor, full curve]
CN(C)CCOCC1(C)COc2ccc(C(=O)Nc3cccc(N(C)C)c3)cc2N1 (stereo not drawn)			inconclusive: 112 µM [inhibitor, single point]
COc1ccc(CCC(=O)N2CCCC(n3c(C)cnc3C3CCOCC3)C2)cc1 (stereo not drawn)		inactive: -23.1%	
CC(C)NC(=O)N1Cc2ccccc2OC2(CCN(C(=O)c3ccc4[nH]ccc4c3)CC2)C1		inactive: -16.8%	
COC[C@@H]1CN(C(=O)CCc2cccc(OC)c2)C[C@H]1c1ccncc1	inactive		
C=CCn1nc(C(=O)N2CCOCC2)c2c1CCC(NCc1c(OC)ccc3ccccc13)C2 (stereo not drawn)		inactive: 10.8%	
COc1ccc(Cl)cc1S(=O)(=O)N1CCC(n2cnnc2-c2ccccc2)CC1		inactive: -15.9%	
CCOc1cccc2c1OC[C@@H]1CN(CCOC)C(=O)CCN(C(=O)c3cccc(OC)c3)[C@H]21			inconclusive: 79.4 µM [inhibitor, partial curve]
C[C@H](C(=O)NCCN1CCOCC1)C1CC[C@@]2(C)Cc3sc(CS(=O)(=O)C(C)(C)C)nc3[C@@H](C)[C@@H]2[C@H]1O (stereo partly drawn)		inactive: -8.1%	
CCOc1ccccc1C(=O)N1CCN(c2cc(C(F)(F)F)nc(C)n2)CC1			inconclusive: 50.1 µM [inhibitor, partial curve, poor fit]
COCc1cc(C[C@@H]2CC[C@H](O)[C@@H](CNCc3cccc(F)c3)O2)no1			inconclusive: 112 µM [inhibitor, single point]
O=C(Cn1c(=O)c2c(n1Cc1ccccc1)CN(Cc1ccccc1)CC2)N1CCC(c2ccccc2)CC1			inconclusive: 56.2 µM [inhibitor, partial curve, poor fit]
COc1cc2c(cc1OC)C(C[C@H]1CN(S(=O)(=O)c3cccs3)CC[C@H]1CC(=O)O)=NCC2			inconclusive: 89.1 µM [inhibitor, single point]
O=C(Nc1ccccc1)N1CCC2(CC1)CC(=O)N(c1ccccc1)c1ccccc1O2			inconclusive: 89.1 µM [inhibitor, partial curve, poor fit]
COCCN1C(=O)[C@@H]2C[C@@H](CN2Cc2ccccc2)Oc2ccccc21			inconclusive: 100 µM [inhibitor, partial curve, poor fit]
CCC(=O)N1CCC2(CC1)CC(N1CCN(CC(C)C)CC1)CCO2 (stereo not drawn)		inactive: -2.2%	
Clc1ccc(-c2noc([C@@H]3Cc4nc[nH]c4CN3CC3CCCCC3)n2)cc1			active: 50.1 µM
CCCNC(=O)N1CCC2(CC1)NCCc1c2[nH]c2ccccc12			inconclusive: 79.4 µM [inhibitor, partial curve, poor fit]
O=C(NCc1ccccc1)c1ccc2nc(-c3ccnc(Cl)c3)oc2c1		inactive: -0.349% [at 172 µM]	
Cc1ccc(C2NC(=O)N(CC(=O)Nc3cc(F)ccc3F)C3=C2C(=O)OC3)cc1 (stereo not drawn)			inconclusive: 44.7 µM [inhibitor, partial curve]
